Results from patent US20140127129A1 (SCIL PROTEINS, published 2014).

What was measured:
[1] = target: T1, human VEGF-A isoform 121 (human, UniProt P15692-9 27-147); experiment: cell-based or functional assay
T1 sequence (looked up): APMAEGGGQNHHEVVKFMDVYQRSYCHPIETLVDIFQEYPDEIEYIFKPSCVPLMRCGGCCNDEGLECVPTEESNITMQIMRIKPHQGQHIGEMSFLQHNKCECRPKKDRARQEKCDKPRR

[2] = target: T1, human VEGF-A isoform 121; experiment: cell-based or functional assay; remark: listed apart in the source
[3] = target: T1, human VEGF-A isoform 121; experiment: SPR (Biacore), VEGF121 immobilized on chip
From the text: (§1) The obtained data were processed via the BIAevaluation software and 1:1-Langmuir-fitting.

[4] = target: T2, human VEGF-A isoform 165 (human, UniProt P15692-4 27-191); experiment: SPR (Biacore), VEGF165 immobilized on chip
T2 construct: mature; also called VEGF165; hVEGF165
T2 sequence (looked up): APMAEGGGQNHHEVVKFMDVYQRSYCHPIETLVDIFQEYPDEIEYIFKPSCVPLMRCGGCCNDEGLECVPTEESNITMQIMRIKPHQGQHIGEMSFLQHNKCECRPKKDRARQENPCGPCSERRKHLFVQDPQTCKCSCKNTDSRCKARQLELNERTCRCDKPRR
From the text: as §1

[5] = target: T2, human VEGF-A isoform 165; experiment: concentration dependent ELISA, VEGF165 coated, apparent KD
Procedure: (§2) As negative control, NGF was used (symbol—star-connected by a broken line).
(§3) Binding of ubiquitin-based variants to human VEGF-A was assayed by a concentration dependent ELISA. […] Antigen coating with 1 to 2.5 μg/ml per well was performed at 4° C. overnight. After washing the plates with PBS, 0.1% Tween 20 pH 7.4 (PBST) the wells were blocked using blocking solution (PBS pH 7.4; 3% BSA; 0.5% Tween 20) at room temperature for 2 h. Wells were washed again three times with PBST. Different concentrations of modified ubiquitin based VEGF-A binding protein were then incubated in the wells at RT for 1 h (see FIG. 3). After washing the wells with PBST, the anti-Ubi fab fragment (a-Ubi-Fab) POD conjugate was applied in an appropriate dilution (for example, 1:6500) in PBST. The plate was washed three times with 300 μl buffer PBST/well. 50 μl TMB substrate solution (KEM-EN-Tec) were added to each well and was incubated. The reaction was stopped by adding 0.2 M H₂SO₄ per well. The ELISA plates were read out using the TECAN Sunrise ELISA-Reader. The photometric absorbance measurements were done at 450 nm using 620 nm as a reference wavelength.

[6] = target: T1, human VEGF-A isoform 121; experiment: SPR (Biacore), VEGF121 immobilized on chip, 1:1 Langmuir fit
From the text: as §1

[7] = target: T2, human VEGF-A isoform 165; experiment: SPR (Biacore), VEGF165 immobilized on chip, 1:1 Langmuir fit
From the text: as §1

[8] = target: T1, human VEGF-A isoform 121; experiment: concentration dependent ELISA, VEGF121 coated, apparent KD; ELISA, not Biacore; hVEGF121
Procedure: as §2, §3

[9] = target: T1, human VEGF-A isoform 121; experiment: SPR (Biacore), 245 RU VEGF121 immobilized on CM5 chip, 0 - 1000 nM 40401 as analyte, 1:1 Langmuir fit
From the text: as §1

[10] = target: T2, human VEGF-A isoform 165; experiment: SPR (Biacore), 260 RU VEGF165 immobilized on CM5 chip, 0 - 1000 nM 40401 as analyte, 1:1 Langmuir fit
From the text: as §1

[11] = target: T1, human VEGF-A isoform 121; experiment: concentration dependent ELISA, VEGF121 coated, apparent KD
Procedure: as §3

B1: VEGF-A binding protein 40401 (designed binder)
chain: MQIFVYTDTGKTITLEVEPSDTIENVKAKIQDKEGIPPDQQRLIWAGKQLEDGRTLSDYNIDVAEYLGISWMPALHLVLRLRGGGIGMQIFVATDTGKTITLEVEPSDTIENVKAKIQDKEGIPPDQQRLIWAGKQLEDGRTLSDYNIRDTVSLHLVLRLRAA
notes: also called SPVF-11-1211_A1_TsX6
B1 was tested, and the “Cell proliferation Assay IC50” value [1] was 8 nM, the “IC50, inhibition of VEGF-induced HUVEC proliferation (WST reagent, E450-620nM)” value [2] was 8.08 nM and the koff [3] was 0.00176 s⁻¹. The koff [4] was 0.00245 s⁻¹, the Kd [5] was 2.2 nM and the Kd [6] was 15 nM. For the same binder, the Kd [7] was 22 nM, the Kd [8] was 2.5 nM and the Ka [9] was 6.82e+07 M⁻¹. It also gave a Kd [9] of 14.7 nM, a kon [9] of 120000 M⁻¹ s⁻¹ and a Ka [10] of 4.56e+07 M⁻¹. It also gave a Kd [10] of 21.9 nM and a kon [10] of 112000 M⁻¹ s⁻¹.

B2: VEGF-A binding protein 59517 (designed binder)
chain: MQIFVYTDTGKTITLEVEPSDTIENVKAKIQDKEGIPPDQQRLIWAGKQLEDGRTLSDYNIDVAEYLGISWMPALHLVLRLRAAGIGMQIFVLTSTGKTITLEVEPSDTIENVKAKIQDKEGIPPDQQRLIWAGKQLEDGRTLSDYNITRNYHLHLVLRLRAA
notes: Hetero-dimeric modified ubiquitin with an 8 amino acid insertion in the first monomer
In the case of B2, the Kd [11] is reported as 2.9 nM.

B3: VEGF-A binding protein 59603 (designed binder)
chain: MQIFVYTDTGKTITLEVEPSDTIENVKAKIQDKEGIPPDQQRLIWAGEQLEDGRTLSDYNIDVAEYLGISWMPALHLVLRLRAAGIGMRIFVYTATGKTITLEVEPSDTIENVKAKIQDKEGIPPDQQRLIWAGKQLEDGRTLSDYNISEKKKLHLVLRLRAA
notes: as for B2
Work on B3 yielded a Kd [11] of 21 nM.

B4: VEGF-A binding protein 60323 (designed binder)
chain: MQIFVYTDTGKTITLEVEPSDTIENVKAKIQDKEGIPPDQQRLIWAGKQLEDGRTLSDYNIDVAEYLGISWMPALHLVLRLRAAGIGMQIFVDTETGKTITLEVEPSDTIENVKAKIQDKEGIPPDQQRLIWAGKQLEDGRTLSDYNIEQLNWLHLVLRLRAA
notes: as for B2
B4 was tested, and the “Cell proliferation Assay IC50” value [1] was 10 nM, the Kd [11] was 2.3 nM and the Kd [6] was 16 nM. The Kd [7] was 14 nM.
